The full ranking holds about 110,000 compounds; the median of “z-score” is about -0.1, and the highest 2% start at about 2. This is one part of the list. Activity calls are given as the source filed them.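 Rule for the calls: active = z-score in the third read window above 3 or below -3; inactive = the rest.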
target: Metabotropic glutamate receptor 8 (Rattus norvegicus) (UniProt P70579); assay: rat mGluR8 modulators via GIRK flux, primary screen, cell-based, thallium flux, HTS (AID 488969); settings: HEK293 rat mGluR8, GIRK (G protein-gated inwardly rectifying potassium channel) thallium flux, FluoZin2; at 10 µM; stronger effect = higher value; submaximal glutamate (EC20) added with thallium
Sequence of UniProt P70579 (P70579 whole entry, looked up): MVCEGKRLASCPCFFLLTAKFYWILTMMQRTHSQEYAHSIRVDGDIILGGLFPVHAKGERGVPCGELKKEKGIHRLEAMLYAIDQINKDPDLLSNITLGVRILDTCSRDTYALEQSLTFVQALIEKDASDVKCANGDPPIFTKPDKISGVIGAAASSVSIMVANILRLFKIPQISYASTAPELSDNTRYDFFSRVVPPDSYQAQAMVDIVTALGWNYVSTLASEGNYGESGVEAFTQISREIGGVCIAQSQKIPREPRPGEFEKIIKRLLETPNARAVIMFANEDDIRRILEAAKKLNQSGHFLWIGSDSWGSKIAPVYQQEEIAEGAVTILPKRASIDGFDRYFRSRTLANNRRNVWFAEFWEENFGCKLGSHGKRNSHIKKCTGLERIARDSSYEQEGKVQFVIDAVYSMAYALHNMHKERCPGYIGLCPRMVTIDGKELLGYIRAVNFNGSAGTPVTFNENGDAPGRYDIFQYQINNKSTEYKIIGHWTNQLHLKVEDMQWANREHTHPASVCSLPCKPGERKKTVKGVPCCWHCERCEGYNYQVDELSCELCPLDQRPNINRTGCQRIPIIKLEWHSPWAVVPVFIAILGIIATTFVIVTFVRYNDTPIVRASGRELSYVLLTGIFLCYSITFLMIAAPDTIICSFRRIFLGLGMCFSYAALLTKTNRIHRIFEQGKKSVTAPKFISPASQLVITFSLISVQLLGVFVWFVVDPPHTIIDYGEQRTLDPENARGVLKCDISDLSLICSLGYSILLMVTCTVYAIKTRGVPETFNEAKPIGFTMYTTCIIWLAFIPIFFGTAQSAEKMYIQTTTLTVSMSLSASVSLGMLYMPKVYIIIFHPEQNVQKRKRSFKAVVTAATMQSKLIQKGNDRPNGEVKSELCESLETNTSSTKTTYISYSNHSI

SMILES | z-score
Cn1c(=O)c2c(nc(Sc3ncccn3)n2Cc2ccc(Cl)cc2)n(C)c1=O | 0.0166
COCCN1CC(O)=C(c2nc3ccccc3c(=O)[nH]2)C1=N | -0.0275
COCCCNS(=O)(=O)c1ccc(Oc2ncc(C(F)(F)F)cc2Cl)cc1 | -0.289
Cc1cs/c(=N\N=C\c2cccc([N+](=O)[O-])c2)n1Cc1ccco1 | active: 5.13
O=S(=O)(c1ccc2c(c1)OCCO2)N1CCC(c2nc3ccccc3s2)CC1 | -0.296
CCOC(=O)c1[nH]c(C)c(C(=O)OC(C)C(=O)Nc2ncc(Cl)cc2Cl)c1C (stereo not given) | -0.375
Cc1ccc(N(CC(=O)N2CCOCC2)S(=O)(=O)c2ccccc2)cc1 | 0.464
COc1cc(/C=N/n2cnnc2)ccc1OC(=O)c1cccnc1 | -0.133
Cc1nc(SCc2ccccc2)c([N+](=O)[O-])[nH]1 | 0.317
COc1ccc(NC(=O)CSc2nc3ccccc3cc2Cc2ccccc2)cc1 | -0.172
C=CCn1c(=O)c2c3c(sc2n2c(Nc4ccc(OC)cc4)nnc12)CCCC3 | -1.06
CCCC(c1nnnn1Cc1ccccc1)N1CCN(c2ccccc2OC)CC1 (stereo not given) | 0.685
CC1=CCC(C(=O)N/N=C/c2cccs2)C(c2ccc(F)cc2)C1 (stereo not given) | 0.188
O=C(CC12CC3CC(CC(C3)C1)C2)NCC(=O)N1CCc2ccccc2C1 | 0.431
Cc1ccccc1C(=O)O/N=C(\c1ccccc1)c1ccccn1 | -0.477
O=C(CN1CCC(n2nnc3cc(F)ccc32)CC1)Nc1ccccc1N1CCOCC1 | -0.361
Cc1ccc(-c2nnn(CC(=O)NC3CCCc4ccccc43)n2)cc1 (stereo not given) | 0.26
Nc1nc(CSC(=S)N2CCOCC2)nc(Nc2ccccc2)n1 | 2.25
COc1ccc(/C(N)=N/OC(=O)c2ccc(C)c([N+](=O)[O-])c2)cc1OC | -0.247
CC(=O)c1c(C)[nH]c(C(=O)OCC(=O)N2c3ccccc3NC(=O)C2(C)C)c1C | -0.348
O=C(Nc1cc(C(F)(F)F)ccc1N1CCOCC1)c1ccc(Br)o1 | 0.207
CCCCNC(=O)C1C2C=CC3(CN(Cc4ccc(C)cc4)C(=O)C13)O2 (stereo not given) | 0.167
O=C(N1CCOCC1)C1(c2ccccc2)CCCCC1 | 0.0973
S=C1NCCOCCOCCOCCNC(=S)NCCOCCOCCOCCN1 | 1.93
O=C(O)CCc1ccc(-c2ccc(F)cc2)n1Cc1ccco1 | 0.536
COc1cccc(/C=N/Nc2nn3cnnc3c3ccccc23)c1 | -0.724
O=C(/C=C/c1ccco1)Nc1ccccn1 | -0.373
Cc1cc2ccccc2n1CCNC(=O)c1cccs1 | 0.56

SMILES | z-score
CCCc1cc(=O)[nH]c(SCC(=O)N2CCN(S(=O)(=O)c3ccc4ccccc4c3)CC2)n1 | -0.144
Cc1cccc(C)c1N1CCN(S(=O)(=O)c2ccc(F)cc2)CC1 | -0.473
CC(=O)Oc1ccccc1C1=NN(C(=O)/C=C/c2ccccc2)C(c2ccccc2)C1 (stereo not given) | 0.332
O=C(NCc1ccccc1)c1ccc(S(=O)(=O)C(F)F)cc1 | -0.241
N=c1n(CCO)c2ccccc2n1CCOc1ccccc1 | -0.208
Cc1cccc(-c2noc(CCCC(=O)N3CCOCC3)n2)c1 | -0.139
Cc1cccc(NC(=O)COc2ccc(Br)cc2)n1 | -0.0989
O=S(=O)(c1ccc(-c2nc3ccccc3s2)cc1)N1CCCC1 | -0.109
Cc1ccc(Oc2cc([N+](=O)[O-])cc3c2C(=O)Nc2ccccc2O3)cc1 | -0.0885
Cc1ccc2nc(N/N=C\c3ccc([N+](=O)[O-])o3)nc(-c3ccccc3)c2c1 | -1.26
COc1ccc(CNC(=O)C2CCN(C(=O)N3CCOc4ccc(C)cc43)CC2)cc1 | -0.187
CCc1cc2c(=O)[nH]c(Cc3ccc(Cl)cc3)nc2s1 | -0.162
O=C(Cn1nc(-c2ccc(F)cc2)ccc1=O)Nc1ccc(C(=O)NC2CC2)cc1 | -0.149
CN1CCN(CCCNC(=O)c2cn(C3CCCCC3)c(=O)c3c2c2ccccc2n3C)CC1 | -0.464
O=C1CCCC/C1=C/Nc1ccc(C(=O)O)cc1 | 0.258
Cc1cc2ccccc2n1CCNC(=O)C1CCCCC1 | -0.273
CCOC(=O)/C(C#N)=C/c1ccc(N2CCN(Cc3ccccc3)CC2)cc1 | -0.69
CCOc1cc(S(=O)(=O)NCc2cccs2)ccc1Cl | 0.0948
N#C/C(=C\Nc1ccccc1O)c1nc2ccccc2o1 | -0.706
COc1ccc(NC(=O)CC(C)C)c(OC)c1 | 0.164
CCCCC(=O)Nc1cccc(NC(=O)c2ccccc2Br)c1 | -0.164
Cc1cc(NC(=O)Cc2c(F)cccc2Cl)no1 | -0.0951
CCN1CCCC1CNC(=O)c1cc2c(-c3ccc(Cl)cc3)nn(C)c2s1 (stereo not given) | 0.368
NC(N)=N/N=C/c1cc([N+](=O)[O-])ccc1O | -0.192
Cc1ccc(S(=O)(=O)Nc2ccccc2CNc2ccccn2)cc1 | -0.344
Cc1c(NC2=CC(=O)CC(C)(C)C2)ccc([N+](=O)[O-])c1C | -0.155
CCOC(=O)C1CCCN(C(=O)C2CCCN(S(=O)(=O)c3ccc4c(c3)oc(=O)n4C)C2)C1 (stereo not given) | -0.171

Source: PubChem BioAssay AID488969 (Vanderbilt High Throughput Screening Facility, 2010)
